# Some of the results follow. Shown are side measurements of this screen, not its main read-out; they come without a call. Most of these compounds were active or inconclusive in the main read-out, so they are no random draw.
# Assay: TAG lipid buildup reduction in H9c2 cells – cell-based, uHTS, fluorescence, primary screen (AID 651582)
# Conditions: Nile Red lipid (TAG) fluorescence, measured here:, at 12.5 µM, cells loaded with 200 µM oleic acid
row,SMILES,"DAPI nuclei signal change (viability), lower = more cytotoxic"
1,O=C(Cc1coc2ccc3ccccc3c12)Nc1nccs1,-3.21%
2,O=C(CSc1nc(N2CCCCC2)nc(N2CCCCC2)n1)N1CCN(c2ccccc2)CC1,-6.41%
3,CC[C@H](C)[C@H](NC(N)=O)C(=O)NCCc1ccc(OC)c(OC)c1,-39.9%
4,COc1ccc(-c2cc3nc(-c4ccccc4)cc(N4CCN(C(=O)c5ccccc5)CC4)n3n2)cc1,88.5%
5,Cc1cccc(N2CCN(C(=O)c3c(-c4ccccc4Cl)noc3C)CC2)c1C,-47.2%
6,CCOC(=O)c1sc(NC(=O)c2sccc2C)cc1C,-8.06%
7,C=CCc1c(C)nc(-c2ccccc2)nc1N/N=C/c1ccncc1,-26.6%
8,CN(C)CC/C=C1\c2ccc(F)cc2Sc2cc(F)c(Cl)cc21,-35.5%
9,CCC(C)(C)c1ccc(Oc2ccc(N)cc2)cc1,-37.6%
10,O=C(CCl)N(c1ccccc1)c1c[nH]c2ccccc12,-36.9%
11,Cc1cccc(N=Nc2ccc(O)c3ncccc23)c1,-25%
12,CC(C)C(=O)NC(c1ccco1)c1ccc2cccnc2c1O (stereo not given),-46%
13,COc1ccccc1-c1nnc(Nc2nc3c(OC)cccc3s2)o1,-14%
14,CCOC(=O)c1c(C)[nH]c(C(=O)OCC(=O)NCCc2ccc(OCC)c(OCC)c2)c1C,-18.9%
15,O=C(NCc1ccc2c(c1)OCO2)c1cc(-c2ccccn2)nc2ccccc12,-20.4%
16,CN(C)CC/C=C1\c2ccccc2Sc2cc(F)c(Cl)cc21,-28.8%
17,COC(=O)C1=C(C)N(Cc2ccccc2)C(=NCc2cc(OC)c(OC)c(OC)c2)N[C@H]1c1ccc(Br)cc1,-2.8%
18,CCN(CC)CCn1c2c(c(SCC(=O)Nc3ccc(C)c(F)c3)nc1=O)CCCC2,-30.9%
19,COc1cc(NC(=O)c2cc3cccc(OC)c3o2)cc(C(=O)Nc2cccc(C(F)(F)F)c2)c1,15.2%
20,C=CC[C@@H](CC(=O)N(CCO)Cc1ccccc1)C(=O)N[C@@H](COC(=O)[C@@H](CC=C)Cc1ccc(F)cc1)Cc1ccccc1,3.33%
21,O=C(CCl)Nc1ccc(-c2ccccc2)cc1,-27.8%
22,C=CCC[C@@H](Cc1ccc(F)cc1)C(=O)OC[C@@H](Cc1c[nH]c2ccccc12)NC(=O)[C@H](CC=C)CC(=O)N(CCO)Cc1ccccc1,-0.326%
23,O=[N+]([O-])c1ccc(-c2nc(C(Cl)Cl)c3ccccc3n2)cc1,-44.5%

row,SMILES,"DAPI nuclei signal change (viability), lower = more cytotoxic"
1,OCCCNc1cc(-c2ccnc(Nc3cccc(Cl)c3)n2)ccn1,-34.2%
2,CN(C)CCOc1ccc(-c2c(-c3ccccc3)sc3ccccc23)cc1,-29.8%
3,Cc1nc(C(=O)Nc2ccccc2Cl)cc2c1[nH]c1ccccc12,0.373%
4,CN1CCN(c2cc3c(c4c2[nH]c2ccccc24)C(=O)CC(C)(C)C3)CC1,30.8%
5,COc1ccccc1NC(=O)N1CCC(c2nc3cc(C)c(C)cc3[nH]2)CC1,-24.1%
6,COc1ccccc1[C@H]1C(c2cccc(C)c2)=NN(c2ccccc2)[C@@H]1CO,98%
7,O=C1/C(=N\S(=O)(=O)c2cccs2)C([n+]2ccccc2)=C([O-])c2ccccc21,-32.3%
8,Cc1cccc(Oc2nc(-c3ccccn3)nc3ccccc23)c1,-31.3%
9,Cc1cccc(NC(=O)c2nc[nH]c2C(=O)NCCCCNC(=O)c2[nH]cnc2C(=O)Nc2cccc(C)c2)c1,-23.2%
10,O=S(=O)(c1ccc(Cl)cc1)N1CCN(Cc2ccc(O)c3ncccc23)CC1,-19.6%
11,CCOC(=O)[C@@H]1[C@H]2COc3ccc(Br)cc3[C@@H]2N2C(=O)N(c3ccc(C(F)(F)F)cc3)C(=O)[C@@]12C,2.95%
12,CCOc1ccc(OCc2ccc(C(=O)NN=Cc3ccc[nH]3)cc2)cc1,-41.5%
13,O=c1c2c3nc4ccccc4nc3n(-c3ccc4c(c3)OCCO4)c2ncn1C1CCCC1,-26.9%
14,C#CCOCCOCCOCCNc1nc(N2CCN(C(=O)CCCCCCCCCCNC(=O)[C@H](CCCCN)n3cc(C)nn3)CC2)nc(N2CCN(C(=O)CCCCCCCCCCNC(=O)[C@@H]([C@H](C)CC)n3cc(CCCCCN)nn3)CC2)n1,-39.4%
15,C[C@H](CO)N1C[C@H](C)[C@@H](CN(C)Cc2ccc(-c3ccccc3)cc2)Oc2c(NC(=O)Cc3ccccc3)cccc2C1=O,-3.04%
16,O=C(CN(CC1CCCO1)S(=O)(=O)c1ccc(S(=O)(=O)NC2CC2)cc1)Nc1ccccc1 (stereo not given),-1.45%
17,CCCCCc1cc(=O)oc2c(C(CCN(CC)CC)c3ccc(OC)cc3)c(OC)cc(OC)c12 (stereo not given),-10.2%
18,CC(=O)Cn1ncc(Br)c(Br)c1=O,-28.1%
19,Cc1ccc(NCCN(C)C)c2c(=O)c3cc(O)ccc3sc12,-38.2%
20,Cc1ccc(NC(=O)c2nc[nH]c2C(=O)NCCCCNC(=O)c2[nH]cnc2C(=O)Nc2ccc(C)cc2)cc1,-2.68%
21,COc1ccc(CNC(=O)/C=C/c2ccc(OCCCF)cc2)cc1,-1.93%
22,CCOC(=O)Cc1ccc(Nc2nc3cc(-c4sccc4C)sc3c(=O)n2C)cc1,-36.4%
23,CC(C)(C)c1ccc(CN2N=Nc3ccccc3S2(=O)=O)cc1,-41.6%

row,SMILES,"DAPI nuclei signal change (viability), lower = more cytotoxic"
1,Cc1ccc(N2C(=O)C3CC(c4ccccc4)=C4C5C=CC(C6C(=O)N(c7ccc(C)cc7C)C(=O)C56)C4C3C2=O)c(C)c1 (stereo not given),-5.52%
2,CC(C)(C)c1cc(NCc2ccccn2)n2ncc(-c3ccc(Cl)cc3)c2n1,94.3%
3,COC(=O)c1c(NC(NC(=O)C(C)(C)C)C(Cl)(Cl)Cl)sc2c1CCC2 (stereo not given),8.35%
4,Nc1c(C(=O)Nc2ccccc2)c2nc3ccccc3nc2n1-c1ccc(O)cc1,16.4%
5,CC(C)c1ccc(Nc2nc(N3CCOCC3)nc(N3CCOCC3)n2)cc1,-16.7%
6,COc1ccc(-c2ccc3[nH]c4c(c3c2)CCN2C[C@@H]([C@H](C)OC(=O)Nc3cc(Cl)cc(Cl)c3)[C@@H](N(C)C(=O)Nc3cc(Cl)cc(Cl)c3)C[C@@H]42)cc1,6.14%
7,Cc1cccc(NC(=O)c2nc[nH]c2C(=O)NCCCCCCNC(=O)c2[nH]cnc2C(=O)Nc2cccc(C)c2)c1,-18.7%
8,COc1ccc(C(=O)Nc2ccc(-c3nnn(CC(=O)NCc4ccco4)n3)cc2)cc1,-14.2%
9,Cc1cc(C(=O)CSc2nnc(NCc3ccccc3)s2)c(C)n1C,-23.1%
10,CCCCCc1cc(=O)oc2c(C(CCN3CCCC(C)C3)c3ccc(N(C)C)cc3)c(OC)cc(OC)c12 (stereo not given),-23.9%
11,C[C@H](CO)N1C[C@H](C)[C@H](CN(C)S(=O)(=O)c2ccc(Cl)cc2)OCc2ccccc2-c2c(n(C)c3ccccc23)C1=O,-1.12%
12,COc1ccccc1C=NN=C(NN=Cc1ccccc1OC)NN=Cc1ccccc1OC,-24.1%
13,CCOC(=O)C1CCN(C(=O)C2(NC(=O)Nc3ccccc3Cl)CCCCC2)CC1,3.87%
14,CCc1cc2c3c(c1)C1(C(=O)N3C(C)(C)C=C2C)C(C#N)=C(N)Oc2[nH]c(=O)[nH]c(=O)c21 (stereo not given),-31.3%
15,O=C(CCl)Nc1cc2[nH]c(=O)[nH]c2cc1Br,-30%
16,COc1ccccc1C(C[N+](=O)[O-])c1c(N)n(C)c(=O)n(C)c1=O (stereo not given),-38.5%
17,Cc1ccc(NC(=O)CSc2nnnn2-c2ccc3c(c2)OCO3)cc1C,-15%
18,CCOC(=O)c1c(CSC(=N)N)n(-c2ccccc2)c2cc(Br)c(OC(C)=O)cc12,-27.6%
19,O=C(C[C@H]1C[C@H](C(=O)N2CCOCC2)[C@@]2(CCC3CCCC3)c3[nH]c4cc(-c5ccco5)ccc4c3CCN2C1=O)NCC12CC3CC(CC(C3)C1)C2,18.1%
20,COc1cc2c(cc1[N+](=O)[O-])-c1ccc([N+](=O)[O-])cc1C2=NNC(N)=S,-18.5%
21,O=C(OCc1ccc(Br)cc1)c1cc([N+](=O)[O-])ccc1N1CCOCC1,-35.9%
22,CCCCCOc1ccc(Br)cc1/C(C)=N/NC1=NCCN1,-6.78%
23,COc1ccc2c(c1)c(CC(=O)Nc1ccc(C)cc1)c(C)n2C(=O)c1ccc(Cl)cc1,-10.7%

row,SMILES,"DAPI nuclei signal change (viability), lower = more cytotoxic"
1,CC1(C)CC(=O)C=C(C#CC2(O)CCCCC2)C1,-34.6%
2,CC(C)(C)NC(=O)C[C@H]1C[C@H](C(=O)N2CCCCC2)[C@@]2(CCc3ccccc3)c3[nH]c4ccc(Cl)cc4c3CCN2C1=O,-1.44%
3,Oc1ccc(C=NNc2ccccn2)c(O)c1,-22.6%
4,CCN1C(=O)[C@H]2[C@@H](c3ccc(-c4ccccc4)c(OC)c3)N[C@@](CC(C)C)(C(=O)OC)[C@H]2C1=O,-11.4%
5,CCCCCc1cc(=O)oc2c(C(CCN3CCCC(C)C3)c3ccc4c(c3)OCO4)c(OC)cc(OC)c12 (stereo not given),-43.7%
6,COc1cc(NC(=O)c2csc(N)n2)cc(C(=O)Nc2cccc(C(F)(F)F)c2)c1,-10.1%
7,CCCCCc1cc(=O)oc2c(C(CCN3CCCC(C)C3)c3ccc(OC)cc3)c(OC)cc(OC)c12 (stereo not given),18.7%
8,N#Cc1c(N)[nH]c2ccc(Sc3ccccc3)cc12,-32.8%
9,CC1(C)Cc2c(C#N)c(SCC(=O)c3ccccc3)nc(N3CCOCC3)c2CS1,-10.1%
10,Cc1ccc(-n2ncc(-c3nnc(SCC(=O)NC4CCCC4)o3)c2N)cc1C,3.44%
11,COc1ccccc1-c1cc(C(F)(F)F)nc(S(=O)(=O)CCCC(=O)N2CCCCC2C)n1 (stereo not given),-42%
12,Cc1ccc(NC(=O)c2ccc(N/N=C/c3cccc(O)c3)c([N+](=O)[O-])c2)cc1,-40.2%
13,COc1ccc(-c2sc3cc4c(cc3c2C#CC2(N)CCCCC2)OCO4)cc1,13.7%
14,CC1CC(C)CN(C(=O)c2ccc3c(c2NCCO)C(=O)c2ccccc2C3=O)C1 (stereo not given),-9.94%
15,Cc1cc(NC(=O)c2cc(-c3ccncc3)nc3c(C)cccc23)no1,-27.2%
16,O=Nc1ccc(O)c2ncccc12,-19.7%
17,COc1cccc(/C=N/Nc2cc(N3CCOCC3)ncn2)c1O,-18.8%
18,Cc1ccc(Oc2ccc(S(=O)(=O)N3CCOCC3)cc2C(N)=O)c(-n2nc3ccccc3n2)c1,-29.9%
19,CCCN1C(=O)/C(=C2\SC(N3CCCCC3)=NC2=O)c2ccccc21,-5.99%
20,COc1cccc(-c2nnc(SCC(=O)Nc3cc(C)ccc3OC)n2N)c1,-3.86%
21,C=CC[C@@H](CC(=O)N[C@H](CO)Cc1ccccc1)C(=O)N[C@H](COC(=O)[C@@H](CC=C)Cc1ccc(F)cc1)C(C)(C)C,-34.5%

# — PubChem BioAssay AID651582 (Sanford-Burnham Center for Chemical Genomics, 2012)
